Measurements as given in the supplement of paper PMC7580552.
Structures can show the parent of a compound that is named as a salt. This is one part of the list. Repeats are few or missing, and single values can be far off.

These compounds were tested on Escherichia coli W3110 (assay: planktonic growth (OD600) relative to untreated control; higher = more growth). Details: 10 µM; 20-24 h; 30 °C; TB.
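Note: stationary (unshaken) cultures in 96-well plates, started at OD600 0.05 from mid-exponential cells, with compounds supplied from DMSO stocks.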

| SMILES | planktonic growth [%] |
| --- | --- |
| CCCCc1cc2ccccc2c(OCCN(C)C)n1 [Dimethisoquin hydrochloride] | 98 |
| CC(C(=O)O)c1ccc2c(c1)[nH]c1ccc(Cl)cc12 (stereo not drawn) [Carprofen] | 98 |
| Cc1cccc(C)c1NC(=O)C(C)N (stereo not drawn) [Tocainide hydrochloride] | 83 |
| CN(C)C(=O)C(CCN1CCC(O)(c2ccc(Cl)cc2)CC1)(c1ccccc1)c1ccccc1 [Loperamide hydrochloride] | 100 |
| Cc1ccccc1C(=O)Nc1ccc(C(=O)N2CCCC(O)c3cc(Cl)ccc32)c(C)c1 (stereo not drawn) [Tolvaptan] | 95 |
| CC(C)(C)NCC(O)COc1cccc2c1CCC(=O)N2 (stereo not drawn) [Carteolol hydrochloride] | 102 |
| C=C1c2c(Cl)ccc(O)c2C(=O)C2=C(O)[C@]3(O)C(=O)C(C(N)=O)=C(O)[C@@H](N(C)C)[C@@H]3[C@@H](O)[C@H]12.O=C(O)c1cc(S(=O)(=O)O)ccc1O [Meclocycline sulfosalicylate] | 34 |
| CCOC(=O)O[C@]1(C(=O)COC(=O)CC)CC[C@H]2[C@@H]3CCC4=CC(=O)C=C[C@]4(C)[C@H]3[C@@H](O)C[C@@]21C [Prednicarbate] | 103 |
| CC(=O)NCCCS(=O)(=O)O [Acamprosate calcium] | 96 |
| O=C(C1CCCCC1)N1CC(=O)N2CCc3ccccc3C2C1 (stereo not drawn) [Praziquantel] | 96 |
| C(=C\c1ccccc1)/CN1CCN(C(c2ccccc2)c2ccccc2)CC1 [Cinnarizine] | 106 |
| COc1ccc2c(c1)c(CC(=O)O)c(C)n2C(=O)c1ccc(Cl)cc1 [Indomethacin] | 98 |
| CN1CCC(=C2c3ccccc3CCc3cccnc32)CC1 [Azatadine maleate] | 93 |
| Nc1nc2ccc(OC(F)(F)F)cc2s1 [Riluzole hydrochloride] | 106 |
| CN(C(=O)C(Cl)Cl)c1ccc(OC(=O)c2ccco2)cc1 [Diloxanide furoate] | 98 |
| Nc1ccn([C@H]2CC[C@@H](CO)O2)c(=O)n1 [Zalcitabine] | 98 |
| Oc1c(I)cc(Cl)c2cccnc12 [Clioquinol] | 37 |
| CC(C)(C#N)c1cc(Cn2cncn2)cc(C(C)(C)C#N)c1 [Anastrozole] | 112 |
| CN(C)CCOC(C)(c1ccccc1)c1ccccn1 (stereo not drawn) [Doxylamine succinate] | 94 |
| CC(=O)c1ccc2c(c1)N(CCCN(C)C)c1ccccc1S2 [Acetopromazine maleate salt] | 94 |
| CC[C@H](C)[C@H](N)C1=N[C@H](C(=O)N[C@@H](CC(C)C)C(=O)N[C@H](CCC(=O)O)C(=O)N[C@H](C(=O)N[C@H]2CCCCNC(=O)[C@H](CC(N)=O)NC(=O)[C@@H](CC(=O)O)NC(=O)[C@H](Cc3cnc[nH]3)NC(=O)[C@@H](Cc3ccccc3)NC(=O)[C@H]([C@@H](C)CC)NC(=O)[C@@H](CCCN)NC2=O)[C@@H](C)CC)CS1 [Bacitracin] | 85 |
| OC(CNCC(O)C1CCc2cc(F)ccc2O1)C1CCc2cc(F)ccc2O1 (stereo not drawn) [Nebivolol hydrochloride] | 107 |
| CN1CCN(CCCN2c3ccccc3Sc3ccc(C(F)(F)F)cc32)CC1 [Trifluoperazine dihydrochloride] | 99 |

| SMILES | planktonic growth [%] |
| --- | --- |
| CN(C)CCN1C(=O)c2ccccc2N(C)c2ccccc21 [Dibenzepine hydrochloride] | 96 |
| COc1ccc(OC)c(C(O)CNC(=O)CN)c1 (stereo not drawn) [Midodrine hydrochloride] | 100 |
| CCCN1CCCC[C@H]1C(=O)Nc1c(C)cccc1C [Ropivacaine hydrochloride] | 96 |
| COc1cc(C(=O)NCc2ccc(OCCN(C)C)cc2)cc(OC)c1OC [Trimethobenzamide hydrochloride] | 99 |
| CC(C)NCC(O)COc1ccc(CCOCC2CC2)cc1 (stereo not drawn) [Betaxolol hydrochloride] | 90 |
| CCc1nc(N)nc(N)c1-c1ccc(Cl)cc1 [Pyrimethamine] | 95 |
| CC(=O)[C@@]1(O)CC[C@H]2[C@@H]3C[C@H](C)C4=CC(=O)C=C[C@]4(C)[C@@]3(F)[C@@H](O)C[C@@]21C [Fluorometholone] | 103 |
| C1CCC(C(CC2CCCCN2)C2CCCCC2)CC1 (stereo not drawn) [Perhexiline maleate] | 103 |
| CCOc1nc2cccc(C(=O)OCc3oc(=O)oc3C)c2n1Cc1ccc(-c2ccccc2-c2noc(=O)[nH]2)cc1 [Azilsartan kamedoxomil] | 95 |
| O=C(O)c1cn(C2CC2)c2cc(N3CCNCC3)c(F)cc2c1=O [Ciprofloxacin hydrochloride monohydrate] | 21 |
| COc1ccc(-c2cc(=S)ss2)cc1 [Anethole-trithione] | 96 |
| C#CCN[C@@H]1CCc2ccccc21 [Rasagiline] | 91 |
| CCOC(=O)O[C@]1(C(=O)OCCl)CC[C@H]2[C@@H]3CCC4=CC(=O)C=C[C@]4(C)[C@H]3[C@@H](O)C[C@@]21C [Loteprednol etabonate] | 92 |
| Cc1ccc(NC(=O)c2ccc(CN3CCN(C)CC3)cc2)cc1Nc1nccc(-c2cccnc2)n1 [Imatinib] | 106 |
| C[C@H]1c2cccc(O)c2C(=O)C2=C(O)[C@]3(O)C(=O)C(C(N)=O)=C(O)[C@@H](N(C)C)[C@@H]3[C@@H](O)[C@@H]21 [Doxycycline hydrochloride] | 28 |
| C[C@](N)(Cc1ccc(O)c(O)c1)C(=O)O [Methyldopa (L,-)] | 103 |
| c1cnc(N2CCN(Cc3ccc4c(c3)OCO4)CC2)nc1 [Piribedil hydrochloride] | 91 |
| Clc1ccc(C(Cn2ccnc2)OCc2ccsc2Cl)c(Cl)c1 (stereo not drawn) [Tioconazole] | 89 |
| CCCC1C(=O)N2C(N(C)C)=Nc3ccc(C)cc3N2C1=O (stereo not drawn) [Azapropazone] | 101 |
| CN[C@@H]1[C@@H](O[C@H]2O[C@H](CO)[C@@H](N)[C@H](O)[C@H]2O)OC2C[C@@H](N)[C@@H](O[C@H]3[C@H](O)[C@@H](O)[C@H](N)C[C@@H]3N)OC2[C@@H]1O (stereo partly drawn) [Apramycin] | 93 |
| Cc1c(-c2ccccc2)oc2c(C(=O)OCCN3CCCCC3)cccc2c1=O [Flavoxate hydrochloride] | 108 |
| NS(=O)(=O)c1cc2c(cc1Cl)NC(C(Cl)Cl)NS2(=O)=O (stereo not drawn) [Trichlormethiazide] | 93 |
| CN[C@@H]1[C@H](O)[C@H](NC)[C@H]2O[C@@]3(O)C(=O)C[C@@H](C)O[C@H]3O[C@@H]2[C@H]1O [Spectinomycin dihydrochloride] | 70 |

| SMILES | planktonic growth [%] |
| --- | --- |
| CC(C)Nc1cccnc1N1CCN(C(=O)c2cc3cc(NS(C)(=O)=O)ccc3[nH]2)CC1 [Delavirdine] | 109 |
| Cc1onc(-c2ccccc2Cl)c1C(=O)N[C@@H]1C(=O)N2[C@@H]1SC(C)(C)[C@@H]2C(=O)O [Cloxacillin sodium salt] | 85 |
| N[C@@H](C(=O)N[C@@H]1C(=O)N2C(C(=O)O)=C(Cl)CC[C@H]12)c1ccccc1 [Loracarbef] | 67 |
| C#Cc1cccc(Nc2ncnc3cc(OCCOC)c(OCCOC)cc23)c1 [Erlotinib] | 99 |
| CN(C)CCC=C1c2ccccc2COc2ccccc21 [Doxepin hydrochloride] | 94 |
| CC(C)[N+](C)(CCOC(=O)C1c2ccccc2Oc2ccccc21)C(C)C [Propantheline bromide] | 94 |
| COc1ccccc1Oc1c(NS(=O)(=O)c2ccc(C(C)(C)C)cc2)nc(-c2ncccn2)nc1OCCO [Bosentan] | 99 |
| Nc1ccccc1S(N)(=O)=O [2-Aminobenzenesulfonamide] | 96 |
| Cn1cnc2c1c(=O)[nH]c(=O)n2C [Theobromine] | 96 |
| CCN(CC)CCNC(=O)c1cc(Cl)c(N)cc1OC [Metoclopramide monohydrochloride] | 105 |
| CCOc1ccc2ccccc2c1C(=O)N[C@@H]1C(=O)N2[C@@H]1SC(C)(C)[C@@H]2C(=O)O [Nafcillin sodium salt monohydrate] | 104 |
| CN(C)C/C=C(/c1ccc(Br)cc1)c1cccnc1 [Zimelidine dihydrochloride monohydrate] | 82 |
| CC(C)(CO)C(O)C(=O)NCCCO (stereo not drawn) [Panthenol (D)] | 95 |
| C=C1/C(=C\C=C2/CCC[C@]3(C)[C@@H]([C@H](C)CCCC(C)C)CC[C@@H]23)C[C@@H](O)C[C@@H]1O [Alfacalcidol] | 95 |
| Cc1ccc2c(c1)c1c3n2CCNC3CCC1 (stereo not drawn) [Pirlindole mesylate] | 96 |
| CCC[C@@H]1C[C@@H](C(=O)N[C@@H]([C@H]2O[C@H](SC)[C@H](O)[C@@H](O)[C@H]2O)[C@H](C)Cl)N(C)C1 [Clindamycin hydrochloride] | 70 |
| O=C(N[C@H](CO)[C@H](O)c1ccc([N+](=O)[O-])cc1)C(Cl)Cl [Chloramphenicol] | 36 |
| CC(=O)O[C@@]12CO[C@@H]1C[C@H](O)[C@@]1(C)C(=O)[C@H](O)C3=C(C)[C@@H](OC(=O)[C@H](O)[C@@H](NC(=O)OC(C)(C)C)c4ccccc4)C[C@@](O)([C@@H](OC(=O)c4ccccc4)[C@H]21)C3(C)C [Docetaxel] | 91 |
| Nc1ccn([C@@H]2O[C@H](CO)[C@@H](O)C2(F)F)c(=O)n1 [Gemcitabine] | 87 |
| CN1C(=O)CC(c2ccccc2)C1=O (stereo not drawn) [Phensuximide] | 94 |
| CN(C)CCN(Cc1ccccc1)c1ccccn1 [Tripelennamine hydrochloride] | 111 |
| CC1CNc2c(cccc2S(=O)(=O)N[C@@H](CCCNC(=N)N)C(=O)N2CC[C@@H](C)C[C@@H]2C(=O)O)C1 (stereo partly drawn) [Argatroban] | 91 |
